{
  "source": "PubChem BioAssay AID686978",
  "about": "(National Center for Advancing Translational Sciences (NCATS), 2013)",
  "note": "Several values for one entry are separate records, joined by “and”; a condition that tells them apart may be missing. Identical values can stand only once. About 64,000 (15%) of roughly 420,000 compounds were called active. The shares of active, inactive and inconclusive entries below differ from those in the screen. The call rests on the fitted dose curve; in most records, active means well fitted inhibition curve with a large enough effect; inconclusive means small, poorly fitted or top-dose-only effect; inactive means flat fitted curve, though single readings scatter. Potencies beside an inconclusive call are fits to weak or partial responses and may not hold up. On the % scale 0 is the no-effect control and ±100 the full control effect; potency means the concentration at half of the fitted maximal effect; tags describe the fitted curve by direction and shape.",
  "data": [
    {"experiment": "qHTS for Inhibitors of human tyrosyl-DNA phosphodiesterase 1 (TDP1): qHTS in cells in absence of CPT; further: nearly all actives have a fitted effect of over 55% in size", "conditions": "DT40 Tdp1-/- hTDP1 cells, no CPT, ATP luminescence, 48 h; activity change, negative = growth inhibition: at 46.2 µM (top of the series) unless noted", "method_in_brief": "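Chicken DT40 Tdp1-/- cells stably complemented with human TDP1 were seeded at 400 cells/well with DMSO in place of 20 nM camptothecin. After compound pinning, cells grew at least 48 hr at 37 °C; viability read by CellTiter-Glo luminescence.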", "values": [
      {"smiles": "CCc1nc2ccc(C(=O)NCc3ccc(N(C)C)cc3)cc2nc1CC", "Potency": "inconclusive: 23.1 µM [inhibitor, partial curve]"},
      {"smiles": "CC1CCCC(NC(=O)COC(=O)c2cccc(NS(=O)(=O)/C=C/c3ccccc3)c2)C1C", "note": "(stereo not drawn)", "Potency": "inconclusive: 29.1 µM [inhibitor, single point]"},
      {"smiles": "C=CCN1C(=O)CSC1=Nc1ccc(O)cc1", "Potency": "active: 16.4 µM"},
      {"smiles": "CCN(C(=O)CSc1nc2ccccc2n1Cc1ccc(C(=O)OC)cc1)c1ccccc1", "Potency": "active: 13 µM"},
      {"smiles": "CC(Sc1ccsc1[N+](=O)[O-])C(=O)NCCc1ccc(Cl)cc1", "note": "(stereo not drawn)", "Potency": "inconclusive: 16.4 µM [inhibitor, single point]"},
      {"smiles": "O=C(NCCCCc1ccccc1)C12CN(Cc3ccccc3)CC1C(c1ccc([N+](=O)[O-])cc1)=NO2", "note": "(stereo not drawn)", "Potency": "inconclusive: 5.8 µM [inhibitor, full curve]"},
      {"smiles": "O=C(CC1OC(=O)c2ccccc21)NNC(=O)c1ccc(F)cc1", "note": "(stereo not drawn)", "activity change, negative = growth inhibition": "inactive: -8.9%"},
      {"smiles": "O=C1c2ccccc2NC(c2cccc(Cl)c2)N1N=C1CCCCCC1", "note": "(stereo not drawn)", "activity change, negative = growth inhibition": "inactive: -9.62%"},
      {"smiles": "Cn1c(CCNC(=O)c2ccco2)nc2cc(NS(=O)(=O)c3ccccc3)ccc21", "Potency": "inconclusive: 16.4 µM [inhibitor, single point]"},
      {"smiles": "CCc1cc(C(=O)NNC(=S)Nc2cc(C)ccc2C)cs1", "Potency": "inconclusive: 11.6 µM [inhibitor, partial curve]"},
      {"smiles": "CCN1C(Br)=CCc2ccccc21", "activity change, negative = growth inhibition": "inactive: -11.2%"},
      {"smiles": "O=C(c1ccccc1)N1CCN(C(=O)C23CC4CC(CC(C4)C2)C3)CC1", "Potency": "inconclusive: 35.5 µM [inhibitor, single point]"},
      {"smiles": "Cc1c(Br)cccc1NC(=O)C1(C)CCN1C(C)C", "note": "(stereo not drawn)", "Potency": "inconclusive: 23.1 µM [inhibitor, single point]"},
      {"smiles": "O=C(CCNS(=O)(=O)c1cccc(Cl)c1)OCC(=O)N1CCN(C(=O)c2ccco2)CC1", "activity change, negative = growth inhibition": "inactive: 0.932%"},
      {"smiles": "OCCSc1nnc(Nc2ccccc2)s1", "activity change, negative = growth inhibition": "inactive: -18.2%"},
      {"smiles": "COC(=O)N1N=C(c2ccc(Br)cc2)CC1(O)C(F)(F)F", "note": "(stereo not drawn)", "activity change, negative = growth inhibition": "inconclusive: -30.2% [inhibitor]"},
      {"smiles": "Cc1ccc(NC(=O)C2CCCN(c3cnccn3)C2)cc1Cl", "note": "(stereo not drawn)", "Potency": "active: 23.1 µM"},
      {"smiles": "O=c1[nH]c(CSc2ncc(C(F)(F)F)cc2Cl)nc2ccccc12", "activity change, negative = growth inhibition": "inactive: -21.2%"},
      {"smiles": "Cc1ccc(CS(=O)Cc2ccc(C(=O)NCc3ccccc3Cl)o2)cc1", "note": "(stereo not drawn)", "Potency": "inactive and inconclusive: 11.6 µM [inhibitor, partial curve]"},
      {"smiles": "O=S(=O)(NCCc1ccccc1)c1cccc2cccnc12", "activity change, negative = growth inhibition": "inconclusive: -35.3% [inhibitor]"},
      {"smiles": "CCOc1ccc(-n2cnc3sc(C)c(C)c3c2=O)cc1", "activity change, negative = growth inhibition": "inactive: -25.8%"},
      {"smiles": "O=C(NCC(c1ccco1)N1CCc2ccccc2C1)C(=O)Nc1ccccc1", "note": "(stereo not drawn)", "Potency": "inconclusive: 29.1 µM [inhibitor, single point]"},
      {"smiles": "Nc1c(C(=O)Nc2ccccc2Cl)nnn1-c1ccc2c(c1)OCCO2", "activity change, negative = growth inhibition": "inconclusive: -33% [inhibitor]"},
      {"smiles": "O=C(NNC(=O)C1COc2ccccc2O1)c1ccccc1O", "note": "(stereo not drawn)", "Potency": "active: 16.4 µM"},
      {"smiles": "CCOc1ccc(NC(=O)CCc2nc3cccnc3n2Cc2ccc(OC)cc2)cc1", "Potency": "inconclusive: 29.1 µM [inhibitor, single point]"},
      {"smiles": "COc1ccc(-n2c(=O)c(C)nc3cnc(Nc4ccccc4)nc32)cc1", "Potency": "inconclusive: 14.6 µM [inhibitor, partial curve]"},
      {"smiles": "COc1ccc(/C=C2\\SC(N)=NC2=O)cc1", "Potency": "inconclusive: 23.1 µM [inhibitor, partial curve]"},
      {"smiles": "O=C(C(=O)c1cccnc1)c1cccnc1", "activity change, negative = growth inhibition": "inconclusive: -31.5% [inhibitor]"},
      {"smiles": "CCCc1ncc(CN2CCCC(C(=O)Nc3ccc(-c4cccc(OC)c4)cc3)C2)cn1", "note": "(stereo not drawn)", "Potency": "inconclusive: 29.1 µM [inhibitor, single point]"},
      {"smiles": "COc1ccc2sc(-c3ccc(N(C)C)cc3)c(-c3ccc4cc[nH]c4c3)c2c1", "activity change, negative = growth inhibition": "inactive: -18%"},
      {"smiles": "O=C(NCCc1ccccn1)c1c(-c2ccccc2)sc2ccccc12", "Potency": "active: 16.4 µM"},
      {"smiles": "COc1cccc(-c2cc(C(F)(F)F)nc(N3CCC(C)CC3)n2)c1", "Potency": "inconclusive: 32.6 µM [inhibitor, single point]"},
      {"smiles": "CCOc1ccc(CNC(c2ccccc2)c2ccccc2)cc1", "Potency": "inconclusive: 29.1 µM [inhibitor, single point]"},
      {"smiles": "COc1ccc(C(CC(=O)N2CCCC2)c2c(OC)cc(OC)c3ccc(=O)oc23)cc1", "note": "(stereo not drawn)", "Potency": "inconclusive: 16.4 µM [inhibitor, single point]"},
      {"smiles": "N#CC(C#N)=CC1=C2OC(c3ccccc3)=CC(c3ccccc3)=C2CCC1", "Potency": "active: 13 µM"},
      {"smiles": "COc1ccccc1C(=O)Nc1cccc(OCc2cc(=O)n3c(C)csc3n2)c1", "Potency": "active: 23.1 µM"},
      {"smiles": "CCOc1ccc(Br)cc1C1=CC(=O)C[C@H](c2ccc(OC)cc2)C1", "Potency": "active: 2.91 µM"},
      {"smiles": "COc1ccc(CONS(=O)(=O)c2ccc(NC(C)=O)cc2)cc1Cl", "Potency": "inconclusive: 29.1 µM [inhibitor, single point]"},
      {"smiles": "CC(=O)NC1C(=O)N(Cc2ccccc2)c2ccc(Br)cc21", "note": "(stereo not drawn)", "Potency": "inconclusive: 29.1 µM [inhibitor, single point]"},
      {"smiles": "CCCCn1nc(C(=O)NCc2ccccc2CN2CCCC2)c2ccccc2c1=O", "Potency": "inconclusive: 29.1 µM [inhibitor, single point]"},
      {"smiles": "CCOc1ccccc1C(=O)Nc1ccccc1-c1ccccc1", "Potency": "inconclusive: 20.6 µM [inhibitor, single point]"},
      {"smiles": "CN(Cc1ccco1)c1ncnc2ccc(-c3ccccc3Cl)cc12", "Potency": "inconclusive: 25.9 µM [inhibitor, single point]"},
      {"smiles": "Cc1ccc(S(=O)(=O)c2nnn3c2nc(NCc2ccccc2)c2sccc23)cc1", "Potency": "inconclusive: 23.1 µM [inhibitor, single point]"},
      {"smiles": "CN1CCN(C(=O)C[C@@H]2CC[C@@H]3[C@H](COC[C@@H](O)CN3Cc3cccc(Cl)c3)O2)CC1", "activity change, negative = growth inhibition": "inactive: -20.4%"},
      {"smiles": "CC(NC(=O)COC(=O)c1cc(Cl)ccc1O)C1CC2CCC1C2", "note": "(stereo not drawn)", "activity change, negative = growth inhibition": "inactive: -15.7%"},
      {"smiles": "CSCCC(NC(=O)c1ccco1)C(=O)O", "note": "(stereo not drawn)", "activity change, negative = growth inhibition": "inactive: -0.843%"},
      {"smiles": "Cc1nnc(SCC(=O)Nc2cccc(S(=O)(=O)N(C)c3ccccc3)c2)s1", "Potency": "active: 6.51 µM"},
      {"smiles": "Cc1ccc(NC(=O)c2cc3nc(C)cc(C)n3n2)cc1", "activity change, negative = growth inhibition": "inactive: 0.353%"}
    ]}
  ]
}
